Measured values published in the supplement of paper PMC8728848.
The list shows a part of the results.

Legend:
Experiment in all cases: glycan array binding signal (z-score within array); higher = stronger binding
Settings in all cases: glycan notation: IUPAC condensed, linker removed
Gal6S(b1-4)Glc = molecular target: Gal6S(b1-4)Glc
Summary of the method: (§1)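 Arrays were curated from the Consortium for Functional Glycomics database, 3228 in total, and kept only where the protein sequence was available. Binding is expressed as a within-array Z-score. This score was averaged across arrays of the same protein sequence at different concentrations or buffers and across linkers, and negative values can be read as non-binding.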

Gal6S(b1-4)Glc6S = molecular target: Gal6S(b1-4)Glc6S
Summary of the method: as §1

Gal6S(b1-4)GlcNAc = molecular target: Gal6S(b1-4)GlcNAc
Summary of the method: as §1

Gal6S(b1-4)GlcNAc6S = molecular target: Gal6S(b1-4)GlcNAc6S
Summary of the method: as §1

GalNAc(a1-3)Gal = molecular target: GalNAc(a1-3)Gal
Summary of the method: as §1

GalNAc(a1-3)GalNAc = molecular target: GalNAc(a1-3)GalNAc
Summary of the method: as §1

GalNAc(b1-3)Gal = molecular target: GalNAc(b1-3)Gal
Summary of the method: as §1

[1] = molecular target: GalNAc(b1-3)Gal(a1-4)Gal(b1-4)GlcNAc
Summary of the method: as §1

GalNAc(b1-3)GalNAc = molecular target: GalNAc(b1-3)GalNAc
Summary of the method: as §1

GalNAc(b1-4)GlcNAc = molecular target: GalNAc(b1-4)GlcNAc
Summary of the method: as §1

Glc(a1-4)Glc = molecular target: Glc(a1-4)Glc
Summary of the method: as §1

Glc(a1-6)Glc(a1-6)Glc = molecular target: Glc(a1-6)Glc(a1-6)Glc
Summary of the method: as §1

Glc(b1-4)Glc = molecular target: Glc(b1-4)Glc
Summary of the method: as §1

Glc(b1-6)Glc = molecular target: Glc(b1-6)Glc
Summary of the method: as §1

GlcA(b1-3)Gal = molecular target: GlcA(b1-3)Gal
Summary of the method: as §1

GlcA(b1-3)GlcNAc = molecular target: GlcA(b1-3)GlcNAc
Summary of the method: as §1

GlcA(b1-6)Gal = molecular target: GlcA(b1-6)Gal
Summary of the method: as §1

[2] = molecular target: GlcNAc(a1-3)Gal(b1-4)GlcNAc
Summary of the method: as §1

[3] = molecular target: GlcNAc(a1-6)Gal(b1-4)GlcNAc
Summary of the method: as §1

[4] = molecular target: GlcNAc(b1-2)Gal(b1-3)GalNAc
Summary of the method: as §1

[5] = molecular target: GlcNAc(b1-2)Man(a1-3)[GlcNAc(b1-2)Man(a1-6)]Man(b1-4)GlcNAc(b1-4)GlcNAc
Summary of the method: as §1

GlcNAc(b1-3)Gal = molecular target: GlcNAc(b1-3)Gal
Summary of the method: as §1

[6] = molecular target: GlcNAc(b1-3)Gal(b1-3)GalNAc
Summary of the method: as §1

GlcNAc(b1-3)Gal(b1-4)Glc = molecular target: GlcNAc(b1-3)Gal(b1-4)Glc
Summary of the method: as §1

[7] = molecular target: GlcNAc(b1-3)Gal(b1-4)GlcNAc
Summary of the method: as §1

[8] = molecular target: GlcNAc(b1-3)Gal(b1-4)GlcNAc(b1-3)Gal(b1-4)GlcNAc
Summary of the method: as §1

GlcNAc(b1-3)GalNAc = molecular target: GlcNAc(b1-3)GalNAc
Summary of the method: as §1

GlcNAc(b1-3)Man = molecular target: GlcNAc(b1-3)Man
Summary of the method: as §1

[9] = molecular target: GlcNAc(b1-3)[GlcNAc(b1-4)][GlcNAc(b1-6)]GlcNAc
Summary of the method: as §1

[10] = molecular target: GlcNAc(b1-3)[GlcNAc(b1-6)]Gal(b1-4)GlcNAc
Summary of the method: as §1

[11] = molecular target: GlcNAc(b1-3)[GlcNAc(b1-6)]GalNAc
Summary of the method: as §1

[12] = molecular target: GlcNAc(b1-4)Gal(b1-4)GlcNAc
Summary of the method: as §1

GlcNAc(b1-4)GlcNAc = molecular target: GlcNAc(b1-4)GlcNAc
Summary of the method: as §1

[13] = molecular target: GlcNAc(b1-4)GlcNAc(b1-4)GlcNAc
Summary of the method: as §1

[14] = molecular target: GlcNAc(b1-4)GlcNAc(b1-4)GlcNAc(b1-4)GlcNAc(b1-4)GlcNAc
Summary of the method: as §1

[15] = molecular target: GlcNAc(b1-4)GlcNAc(b1-4)GlcNAc(b1-4)GlcNAc(b1-4)GlcNAc(b1-4)GlcNAc
Summary of the method: as §1

[16] = molecular target: GlcNAc(b1-4)[GlcNAc(b1-6)]GalNAc
Summary of the method: as §1

[17] = molecular target: GlcNAc(b1-6)Gal(b1-4)GlcNAc
Summary of the method: as §1

B1: Codakine (Codakia orbicularis), Q3KVL7_9BIVA (protein)
chain: MKILVAVFLVLVVVGTAAAGCPDGWTQFLDLCYIYQSAKASWASAQSSCQALGGILAEPDTACENEVLIHMCRENGDAGSFGPWLGGQKVGGAWQWSSSGAAFDYLRWGPNEPNNSGGNEDCLHYNWLSWNDLRCHYQASYLCQRAAE
- glycan array binding signal (z-score) (Gal6S(b1-4)Glc): -0.229
- glycan array binding signal (z-score) (Gal6S(b1-4)Glc6S): 0.037
- glycan array binding signal (z-score) (Gal6S(b1-4)GlcNAc): -0.136
- glycan array binding signal (z-score) (Gal6S(b1-4)GlcNAc6S): 0.016
- glycan array binding signal (z-score) (GalNAc(a1-3)Gal): -0.32
- glycan array binding signal (z-score) (GalNAc(a1-3)GalNAc): -0.347
- glycan array binding signal (z-score) (GalNAc(b1-3)Gal): -0.313
- glycan array binding signal (z-score) [1]: -0.372
- glycan array binding signal (z-score) (GalNAc(b1-3)GalNAc): -0.34
- glycan array binding signal (z-score) (GalNAc(b1-4)GlcNAc): -0.32
- glycan array binding signal (z-score) (Glc(a1-4)Glc): -0.306
- glycan array binding signal (z-score) (Glc(a1-6)Glc(a1-6)Glc): -0.317
- glycan array binding signal (z-score) (Glc(b1-4)Glc): -0.419
- glycan array binding signal (z-score) (Glc(b1-6)Glc): -0.182
- glycan array binding signal (z-score) (GlcA(b1-3)Gal): -0.231
- glycan array binding signal (z-score) (GlcA(b1-3)GlcNAc): -0.159
- glycan array binding signal (z-score) (GlcA(b1-6)Gal): -0.302
- glycan array binding signal (z-score) [2]: -0.437
- glycan array binding signal (z-score) [3]: -0.28
- glycan array binding signal (z-score) [4]: -0.276
- glycan array binding signal (z-score) [5]: 2.79
- glycan array binding signal (z-score) (GlcNAc(b1-3)Gal): -0.293
- glycan array binding signal (z-score) [6]: -0.195
- glycan array binding signal (z-score) (GlcNAc(b1-3)Gal(b1-4)Glc): -0.148
- glycan array binding signal (z-score) [7]: -0.291
- glycan array binding signal (z-score) [8]: -0.251
- glycan array binding signal (z-score) (GlcNAc(b1-3)GalNAc): -0.349
- glycan array binding signal (z-score) (GlcNAc(b1-3)Man): -0.214
- glycan array binding signal (z-score) [9]: -0.28
- glycan array binding signal (z-score) [10]: -0.263
- glycan array binding signal (z-score) [11]: -0.291
- glycan array binding signal (z-score) [12]: -0.3
- glycan array binding signal (z-score) (GlcNAc(b1-4)GlcNAc): -0.313
- glycan array binding signal (z-score) [13]: -0.231
- glycan array binding signal (z-score) [14]: -0.244
- glycan array binding signal (z-score) [15]: -0.341
- glycan array binding signal (z-score) [16]: -0.163
- glycan array binding signal (z-score) [17]: -0.232
